Reference: the supplement of paper PMC6531468
This is one part of the list. Values come from read counts of a selection and are noisy. Each score is taken over the longer molecules that contain the sequence shown.

Assays:
Test in all cases: 6-mer SELEX enrichment z-score vs GST control; IMP3 is the RNA-binding protein IGF2BP3; higher = more enriched by binding
[1] = test system: IMP3 KH1-4; details: construct: KH1-4 (164-579); SELEX round: R4
Experimental: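 SELEX-seq with GST-tagged IMP3 KH1-4 (Pro164-Lys579) and an N40 RNA pool, round 4. 6-mer z-score of sequence-tag enrichment normalised to the corresponding GST SELEX round; RNA k-mers written as DNA (T for U).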

[2] = test system: IMP3 RRM1-2; details: construct: RRM1-2 (1-163); SELEX round: R2
Experimental: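 SELEX-seq with GST-tagged IMP3 RRM1-2 (Met1-Asn163) and an N40 RNA pool, round 2. 6-mer enrichment z-score normalised to GST SELEX. RNA written as DNA (T = U).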

[3] = target: IMP3 full-length (UniProt O00425); details: construct: FL IMP3 (1-579); SELEX round: R4
Experimental: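 SELEX-seq with GST-tagged full-length IMP3 and an N40 RNA pool, round 4. Each 6-mer is scored as an enrichment z-score of sequence tags containing it, normalised to the matching GST SELEX round. RNA written as DNA (T = U).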

[4] = test system: IMP3 KH1-2; details: construct: KH1-2 (164-376); SELEX round: R4
Experimental: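 SELEX-seq with GST-tagged IMP3 KH1-2 (Pro164-Phe376) and an N40 RNA pool, round 4 (stringent 300/600 mM KCl washes). 6-mer z-score of sequence-tag enrichment normalised to the corresponding GST SELEX round; RNA k-mers written as DNA (T for U).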

[5] = test system: IMP3 KH3-4; details: construct: KH3-4 (377-579); SELEX round: R4
Experimental: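 SELEX-seq with GST-tagged IMP3 KH3-4 (Pro377-Lys579) and an N40 RNA pool, round 4. 6-mer z-score of sequence-tag enrichment normalised to the corresponding GST SELEX round; RNA k-mers written as DNA (T for U).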

UniProt O00425, sequence (O00425 whole entry): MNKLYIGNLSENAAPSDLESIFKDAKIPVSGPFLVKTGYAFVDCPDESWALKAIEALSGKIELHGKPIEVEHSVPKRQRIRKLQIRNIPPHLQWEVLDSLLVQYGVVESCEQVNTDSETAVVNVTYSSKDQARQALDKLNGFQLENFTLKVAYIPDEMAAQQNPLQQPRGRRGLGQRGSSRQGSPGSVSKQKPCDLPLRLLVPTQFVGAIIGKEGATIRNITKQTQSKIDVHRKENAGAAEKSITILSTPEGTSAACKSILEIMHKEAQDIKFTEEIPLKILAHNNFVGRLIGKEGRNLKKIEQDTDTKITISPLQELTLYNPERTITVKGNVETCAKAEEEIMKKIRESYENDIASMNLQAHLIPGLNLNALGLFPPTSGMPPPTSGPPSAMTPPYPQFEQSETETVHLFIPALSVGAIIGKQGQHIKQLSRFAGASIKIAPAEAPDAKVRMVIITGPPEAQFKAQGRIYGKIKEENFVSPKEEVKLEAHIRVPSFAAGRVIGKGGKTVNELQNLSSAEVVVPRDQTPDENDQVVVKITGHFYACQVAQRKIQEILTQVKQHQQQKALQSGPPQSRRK
IMP3 KH3-4, sequence (chain, as listed by the source): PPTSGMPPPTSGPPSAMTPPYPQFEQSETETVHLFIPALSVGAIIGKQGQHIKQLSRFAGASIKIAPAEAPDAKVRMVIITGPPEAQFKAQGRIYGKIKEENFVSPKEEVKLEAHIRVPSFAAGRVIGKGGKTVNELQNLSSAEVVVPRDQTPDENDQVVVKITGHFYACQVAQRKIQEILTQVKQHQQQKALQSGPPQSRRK
IMP3 KH1-2, sequence (chain, as listed by the source): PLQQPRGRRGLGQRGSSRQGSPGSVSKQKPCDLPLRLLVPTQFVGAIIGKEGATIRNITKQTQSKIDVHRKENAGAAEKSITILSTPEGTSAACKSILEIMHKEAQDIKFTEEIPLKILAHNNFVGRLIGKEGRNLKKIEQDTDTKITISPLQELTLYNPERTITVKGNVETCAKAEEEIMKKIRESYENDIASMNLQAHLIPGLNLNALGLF
IMP3 RRM1-2, sequence (chain, as listed by the source): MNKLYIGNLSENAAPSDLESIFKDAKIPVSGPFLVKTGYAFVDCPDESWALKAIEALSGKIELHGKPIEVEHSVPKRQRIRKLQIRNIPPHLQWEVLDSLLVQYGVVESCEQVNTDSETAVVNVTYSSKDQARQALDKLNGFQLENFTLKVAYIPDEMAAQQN
IMP3 KH1-4, sequence (chain, as listed by the source): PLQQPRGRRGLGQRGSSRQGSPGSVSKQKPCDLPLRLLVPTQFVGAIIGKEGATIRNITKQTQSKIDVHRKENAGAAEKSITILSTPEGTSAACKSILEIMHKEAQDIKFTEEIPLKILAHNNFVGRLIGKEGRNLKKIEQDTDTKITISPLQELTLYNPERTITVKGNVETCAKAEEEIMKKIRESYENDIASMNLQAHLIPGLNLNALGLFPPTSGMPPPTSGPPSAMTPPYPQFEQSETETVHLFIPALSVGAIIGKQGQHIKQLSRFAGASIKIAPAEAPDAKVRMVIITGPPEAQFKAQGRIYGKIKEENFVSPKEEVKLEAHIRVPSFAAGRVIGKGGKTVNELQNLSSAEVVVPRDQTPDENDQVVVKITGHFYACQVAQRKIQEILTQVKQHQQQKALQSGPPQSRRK

Row | Sequence | 6-mer SELEX enrichment z-score [1] | 6-mer SELEX enrichment z-score [2] | 6-mer SELEX enrichment z-score [3] | 6-mer SELEX enrichment z-score [4] | 6-mer SELEX enrichment z-score [5]
1 | GCCATC | 0.278 | 0.594 | 1.01 | 0.111 | -0.242
2 | TTGAGG | -0.006 | 0.037 | -0.004 | -0.002 | 0.261
3 | TACAAT | 1.6 | 0.654 | 0.99 | 1.74 | 1.79
4 | TTTTGC | 0.143 | 0.179 | -0.137 | 0.124 | 0.228
5 | TTAAGG | 0.227 | -0.022 | -0.054 | 0.236 | 0.682
6 | GCGGGA | 0.111 | -0.323 | 0.477 | 0.333 | 0.257
7 | AACGAA | -0.927 | -2.54 | -1.96 | -0.971 | -0.14
8 | GCTCTT | -0.001 | 0.553 | 0.222 | 0.142 | 0.114
9 | AACTGA | -0.211 | -1.37 | -1.41 | -0.202 | 0.021
10 | GAGTTA | -0.232 | -0.132 | -0.29 | -0.2 | -0.028
11 | CCCCGT | -0.409 | -0.449 | -0.263 | -0.27 | -0.814
12 | TTTCTG | 0.424 | 0.35 | 0.179 | 0.538 | 0.467
13 | TTTCCC | 0.092 | -0.147 | -0.563 | 0.004 | -0.325
14 | ATCGGT | 0.208 | 0.356 | 0.321 | 0.039 | 0.169
15 | GTACTG | -0.4 | -0.036 | -0.296 | -0.409 | -0.438
16 | CCAGAG | -1.46 | -0.57 | -0.825 | -1.45 | -1.53
17 | ACTGTA | 0.447 | -0.403 | -0.09 | 0.404 | 0.412
18 | GAATAC | 0.373 | -0.851 | -0.44 | 0.342 | 0.535
19 | TGTGCA | 1.01 | 0.142 | 0.315 | 0.582 | 0.564
20 | GTCTTG | -0.492 | 0.514 | -0.065 | -0.376 | -0.244
21 | GAAATG | 0.478 | -1.53 | -0.937 | 0.107 | 1.06
22 | CTTAAT | 0.975 | -0.023 | 0.035 | 0.836 | 1.17
23 | GGTTTC | -0.336 | 0.491 | 0.01 | -0.195 | -0.07
24 | GTCTTC | -0.204 | 0.419 | 0.116 | -0.089 | -0.111
25 | GTACCG | -0.925 | -0.3 | -0.103 | -0.865 | -1.08
26 | GGAGGG | 1.39 | -0.048 | 0.679 | 1.71 | 1.29
27 | CGCTAA | 0.06 | -0.419 | -0.347 | 0.127 | 0.057
28 | AGAGTG | -1.04 | -0.341 | -0.865 | -1.15 | -0.911
